Assay results taken from PubChem BioAssay AID493208 (National Center for Advancing Translational Sciences (NCATS), 2011).
Among all 44,000 compounds or so, about 340 (0.77%) were called active. About 5% were inconclusive and are not listed. Calls follow the shape of the dose curve; as a rule, active = well fitted inhibition curve with a large enough effect; inconclusive = small, poorly fitted or top-dose-only effect; inactive = flat fitted curve, though single readings scatter. The list shows a part of the results.

assay: Acumen qHTS Assay for Inhibitors of the mTORC1 Signaling Pathway in MEF (Tsc2-/-, p53-/-) Cells: Sytravon; details: phospho-rpS6 immunofluorescence/PI, 24 h; series mostly up to 38.3 µM; activity change, negative = inhibition: at the top concentration;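 also: plate controls were DMSO for no effect and rapamycin for full effect; nearly all actives have a fitted effect of over 50% in size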
Procedure, shortened: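 Tsc2-/-, p53-/- MEFs (empty-vector stable line) in DMEM + 10% FBS were treated with compounds 24 h at 37 degree Celsius, fixed, and immunostained for phospho-rpS6 (Alexa-488) with propidium iodide counterstain. Laser-scanning cytometry gave % positive cells, normalized against 7.5 nM rapamycin and DMSO.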

Activity change, negative = inhibition, inactive:
Cc1ccc(-c2nc(CS(=O)(=O)CC(=O)Nc3cc(C)ccc3C)c(C)o2)cc1 5.73%
Cn1c(=O)cc(OCC(=O)NCc2ccc(F)cc2Cl)c2ccccc21 -1%
Cc1csc2nc(COc3ccccc3NC(=O)c3ccccc3Cl)cc(=O)n12 -0.16%
Cc1ccc2nc(-c3ccc(Cl)c(NC(=O)c4ccc(Br)o4)c3)oc2c1 6.52%
CSc1nc2c([nH]c3ccccc32)c(=O)n1-c1ccc(C)cc1 -15.7%
CSc1ccc(CCNC(=O)c2ccc(CS(=O)Cc3ccc(Cl)cc3)o2)cc1 (stereo unspecified) -5.76%
O=C(COCc1cc(-c2ccc3c(c2)OCO3)on1)NCc1ccc(F)cc1 -12.9%
Cc1ccc(Cl)cc1NC(=O)c1cc(S(=O)(=O)N2CCCCCC2)cn1C -0.628%
Cc1cccc(-c2nc(CSCC(=O)N3CCN(c4cccc(C)c4C)CC3)c(C)o2)c1 -6.55%
Cc1ccc(C)c(N2CCN(S(=O)(=O)c3cc(C(=O)Nc4cc(Cl)cc(Cl)c4)ccc3F)CC2)c1 -0.905%
O=C(CSc1nc(-c2cccs2)nc2cc(=O)[nH]n12)Nc1ccccc1Cl -4.86%
COc1cc(C2CC(=O)Nc3c2c(C)nn3-c2nncc(-c3ccccc3)n2)cc(OC)c1OC (stereo unspecified) -10.4%
O=C(Nc1ccccc1Cl)c1cc2c(-c3ccccc3)nn(-c3ccccc3)c2s1 -1.28%
CCN(c1ccccc1)c1nnc(NC(=O)Nc2ccc(C)cc2)s1 -0.284%
O=C(OCc1cc(=O)n2nc(-c3cccs3)sc2n1)c1ccc(F)cc1 13.6%
CCOc1ccc(C(=O)Nc2cccc(-c3nc4cccnc4s3)c2C)cc1OCC -2.57%
COc1ccc(Nc2ncc3c(n2)CCN(Cc2ccc(Br)s2)C3)c(OC)c1 16%
Cc1ccc2nc3c(cc(C#N)c(=O)n3-c3nnc(SCc4ccccc4Cl)s3)c(=O)n2c1 -1.07%
COc1ccc(/C=C/c2nc(C#N)c(N3CCC(C)CC3)o2)cc1OC -18.9%
CC(=O)N1N=C(c2ccc(C)cc2)CC1c1cn(-c2ccccc2)nc1-c1cccs1 (stereo unspecified) 4.29%
CCn1cc(C(=O)NCc2ccccc2)c(=O)c2cc(S(=O)(=O)N3CCCCCC3)ccc21 -16%
COc1ccc(NC(=O)c2ccc(COc3ccccc3OC)o2)cc1OC 0.225%
COc1ccc(Br)cc1CNC(=O)C1CCCCN1S(=O)(=O)c1ccc(F)cc1 (stereo unspecified) -11.3%
Cc1ccc(OCc2nc3ccccc3n2Cc2ccccc2Cl)cc1 -15.2%
COc1cccc(CNC(=O)CCC(=O)N2Cc3cccc(OC)c3Oc3ncccc32)c1OC -3.95%
CCCNC(=O)CCc1c(C)nc2nc(-c3cc(OC)cc(OC)c3)nn2c1C -11.9%
O=C(Cc1ccccc1)Nc1c(C(=O)Nc2ccccc2F)oc2ccccc12 0.223%
CCc1ccc(-c2[nH]c3c(c2-c2sc(C)c(C(=O)OC)c2O)c(=O)n(C)c(=O)n3C)cc1 -5.16%
COc1cccc2sc(N(Cc3cccnc3)C(=O)C3COc4ccccc4O3)nc12 (stereo unspecified) -0.606%
COc1ccc(N(C)C(=O)CCS(=O)(=O)c2cccc3nsnc23)cc1 0.436%
Cc1c(NC(=O)c2ccccc2F)cccc1-c1nc2cccnc2s1 3.81%
Cc1ccc(Nc2nc3ccccc3c3nncn23)cc1C -14.8%
O=C(Cn1ncc2c(=O)oc3ccccc3c21)NCc1ccc(Cl)cc1 4.06%
CC(=O)N1CCCc2cc(S(=O)(=O)N(C)CC(=O)Nc3ccc(Cl)cc3C)ccc21 -7.13%
Cc1ccc(C)c(NC(=O)c2cc(S(=O)(=O)NCCC3=CCCCC3)ccc2F)c1 -9.3%
COc1ccc(CNC(=O)C(C(C)C)N2Cc3ccccc3C2=O)cc1 (stereo unspecified) 1.74%
CCCN(CCC)C(=O)C1CCN(c2ncnc3c2nc2n3CCCCC2)CC1 0.875%
CCOc1ccc(CCNC(=O)CN(c2ccc(C)cc2)S(=O)(=O)N(C)C)cc1OCC 1.91%
O=c1c(S(=O)(=O)c2ccccc2)cn(Cc2ccc(F)cc2)c2cc(N3CCCCC3)c(F)cc12 -0.13%
CC1Cn2cc(C(=O)Nc3cccc(C(F)(F)F)c3)c(=O)c3c(Cl)ccc(c32)O1 (stereo unspecified) -0.111%
COC(=O)c1nnn(CC(=O)Nc2ccc(Br)c(C)c2)c1N 0.0312%
Cc1ccc(-c2onc(C)c2C)cc1S(=O)(=O)NC1CCCCC1 -6.68%
Cc1ccc(-n2c(=O)c3c(c4cc(C)ccc4n3C)n(CC(=O)Nc3cc(C)cc(C)c3)c2=O)cc1 -1.05%
CCOC(=O)c1c(-c2ccc(OC)cc2)oc2ccc(OCc3ccc(C(=O)OC)cc3)cc12 -2.46%
CCNc1c(NC(=O)c2cc(OCC)c(OCC)c(OCC)c2)c(=O)oc2ccccc12 -0.859%
CCC(=O)N1CCc2cc(Br)cc(S(=O)(=O)NCCc3ccccc3)c21 6.77%
CCOC(=O)c1c(NC(=O)COc2ccc(F)cc2)sc2c1CCC(C)C2 (stereo unspecified) 4.73%
CC(C)(C)C(=O)Nc1cccc(C(=O)OCc2cc(=O)n3nc(C4CCCCC4)sc3n2)c1 0%
O=C(CSc1nc2ccccc2n1Cc1ccccc1Cl)NCc1ccccc1 4.74%
N#C/C(=C\c1ccc(-c2cc(Cl)ccc2Cl)o1)C(=O)Nc1ccccc1C(=O)O 1.45%
CCCCN(C)CCNC(=O)c1nn(-c2ccc(OC)cc2)c(=O)c2c1c1ccccc1n2C -1.08%
CCOC(=O)c1[nH]cnc1C(=O)Nc1ccc(F)cc1 1.71%
COc1cccc(CNC(=O)CCNS(=O)(=O)c2ccc3c(c2)oc(=O)n3C)c1 0.17%
Cc1cc(C)c(Cn2c(C(O)c3ccccc3)nc3ccccc32)c(C)c1 (stereo unspecified) -7.67%
CCN(Cc1ccccc1)C(=O)CN1C(=O)COc2ccc(S(=O)(=O)N3CCCCCC3)cc21 -12.8%
CCn1cc2nc(SCc3ccccc3F)n(Cc3ccc(C)cc3)c(=O)c2n1 -9.11%
Cc1ccc(NC(=O)CCS(=O)(=O)c2cccc3nsnc23)c(C)c1 0.171%
CCOc1ccc(NC(=O)CCS(=O)(=O)c2ccc3c(c2)n(C)c(=O)c(=O)n3C)cc1 -0.309%
CCCS(=O)(=O)Nc1cc2c(cc1NCc1ccccc1)n(C)c(=O)n2C -17.8%
Cc1ccc2cccc(NC(=O)C(C)(C)Oc3ccc(Br)cc3)c2n1 1.15%
CCOc1ccc(NC(=O)CSc2nc(-c3ccc(F)cc3)cc(C(F)(F)F)c2C#N)cc1 4.81%
CCOC(=O)c1ccccc1NC(=O)Cn1c2ncccc2c(=O)n1-c1ccccc1 2.02%
CCOC(=O)CSc1nc2ccc(NC(=O)c3ccccc3)cc2s1 -0.233%
COc1cc(-c2nnc(SCCOc3ccc(C)c(Cl)c3)o2)cc(OC)c1OC -0.518%
Cc1ccc(C)c(N2CCN(Cc3nnc(-c4ccccc4)o3)CC2)c1 3.81%
COc1cccc(C(=O)c2cn(CC(=O)Nc3cccc(C)c3C)c3nc(C)ccc3c2=O)c1 -3.31%
CCOCCCn1c(SCC(=O)Nc2ccc(OC)cc2OC)nc2ccccc2c1=O -1.26%
Cc1cccc(C)c1NC(=O)Cn1nc(C)c2sc3ccccc3c2c1=O -18.1%
COc1ccc(-c2cn3c(n2)sc2cc(C(=O)Nc4cc(Cl)ccc4C)ccc23)cc1 0.38%
CCc1ccc(C(=O)Nc2ccc3nn(-c4ccc(C)c(Cl)c4)nc3c2)cc1 -5.8%
Cc1ccc(CN2CCc3nc(SCC(=O)Nc4cccc(C)c4C)[nH]c(=O)c3C2)cc1 1.76%
COc1ccc(N2CC(NC(=O)c3ccc(S(=O)(=O)N4CCCCC4)cc3)CC2=O)cc1OC (stereo unspecified) -3.94%
Cc1cccc(NC(=O)c2cc(S(=O)(=O)N3CCC4(CC3)OCCO4)ccc2F)c1 -1.21%
O=C(CCNS(=O)(=O)c1ccc2c(c1)CCN2C(=O)C1CC1)Nc1ccc(F)cc1F -14.5%
CCOC(=O)c1ccc(NC(=O)Cn2cc(C(=O)c3ccc(Cl)cc3)c(=O)c3ccc(C)nc32)cc1 2.72%
COc1cc(OC)cc(-c2nc3nc(C)c(CCC(=O)Nc4cc(F)ccc4F)c(C)n3n2)c1 -1.69%
CCSc1ncc(Cl)c(C(=O)Nc2c(C(=O)c3ccccc3)oc3ccccc23)n1 -5.98%
Cc1nc2cc(-c3ccccc3)nn2c(C)c1CCC(=O)N1CCN(c2ccccc2)CC1 2.97%
O=C(NCCc1csc(-c2ccc(F)cc2)n1)c1ccc(Br)o1 0.419%
Cc1ccccc1CN1CCN(CC(=O)NCc2ccccc2Cl)C1=O 10.1%
COc1ccc2oc(-c3ccc(C)c(NC(=O)Cc4ccc(Cl)cc4)c3)nc2c1 -0.723%
Cc1c(NC(=O)c2cc(=O)c3cc(Cl)ccc3o2)c(=O)n(-c2ccccc2)n1C -2.97%
Cn1cnc2c(=O)oc3ccc(S(=O)(=O)N4CCN(c5cccc(Cl)c5)CC4)cc3c21 -1.56%
Cc1cccc(-c2nc(Cn3c(SCc4cccc(C(F)(F)F)c4)nc4ccncc43)c(C)o2)c1 -7.14%
Fc1ccc2c(c1)NC(c1ccncc1)=NC(c1cccs1)=N2 5.65%
Cc1nc2c(C(=O)NC(C)c3ccccc3)cnn2c(C)c1Cc1ccccc1 (stereo unspecified) 3.62%
COC(=O)c1cc2occc2n1Cc1nc(-c2ccc(C)cc2)oc1C -1.21%
CC(C)c1ccc(N2C(=O)CSC23C(=O)N(Cc2ccccc2)c2ccccc23)cc1 (stereo unspecified) 1.57%
Cc1cc(NS(=O)(=O)c2ccc3oc(=O)c4ncn(C)c4c3c2)ccc1Br 2%
Cc1ccc(NC(=O)Cn2c(=O)n(Cc3nc(C)no3)c(=O)c3cc4c(cc32)OCO4)cc1 2.07%
O=C(/C=C/c1ccccc1Cl)Nc1nc(-c2cccs2)ns1 0.178%
COc1ccc(NC(=O)N2CCN(S(=O)(=O)c3ccc4c(ccn4C)c3)CC2)c(OC)c1 -6.42%
Cc1nc2ccn(Cc3ccco3)c(=O)c2cc1C(=O)N1CCN(c2ccc(F)cc2)CC1 -4.79%
COc1cccc(CNC(=O)C(C)n2c(=O)cc(-c3ccccc3)c3c(C)nn(C)c32)c1 (stereo unspecified) -7.64%
CN(Cc1ccccc1)C(=O)CSc1nc(-c2ccc(F)cc2)cc(C(F)(F)F)n1 -11.9%
CCCC(CCC)C(=O)NC1CC(=O)N(c2ccc3c(c2)OCCO3)C1 (stereo unspecified) 2.66%
